# Measured values published in PubChem BioAssay AID995 (National Center for Advancing Translational Sciences (NCATS), 2007).
# The campaign covered roughly 72,000 compounds. About 710 (0.99%) were called active. The inconclusive results got no clear call from the source; some entries with a clear call stand among them for comparison. Calls come from the whole dose curve; as a rule, active = well fitted inhibition curve with a large enough effect; inconclusive = small, poorly fitted or top-dose-only effect; inactive = no such curve, though single readings can be large or run the other way. Potencies of inconclusive entries are left out as doubtful fits.
# Test: qHTS Assay for Inhibitors of the ERK Signaling Pathway using a Homogeneous Screening Assay; note: nearly all actives have a fitted effect of over 55% in size
# Details: HEK293-V1b, vasopressin-stimulated pERK AlphaScreen; activity, negative = inhibition: at 57.5 µM (top of the series) unless noted
# Outline: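 V1b-HEK293 cells; cpd 30 min 37C; 25 nM vasopressin 5 min; lyse 10 min; AlphaScreen beads 5 hr RT. Normalized to DMSO basal and 25 nM vasopressin; AC50 by Hill fit.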
# % is set by controls: 0 for no effect and ±100 for the full control effect; potency is the fitted concentration of half-maximal effect; tags give direction and shape of the fitted curve.
Compound,Potency,"activity, negative = inhibition"
CCCCCC(=O)Nc1cccc(-c2nc3ncccc3o2)c1,"inconclusive [inhibitor, full curve]",–
Cc1cc(NC(=O)c2sc(Nc3cccc(C(F)(F)F)c3)nc2N)no1,"inconclusive [inhibitor, single point]",–
Cc1noc(C)c1-c1nccc(-n2ccnc2)n1,–,inactive: -29.9%
CCOC(=O)c1cc(C#N)c(SCc2ccc(C#N)cc2)nc1C,–,inactive: 30.1%
CCCCn1c(CN(C)Cc2ccccc2)nc2c1c(=O)n(C)c(=O)n2C,"inconclusive [inhibitor, full curve]",–
Cc1cc2ncn(C3CC(=O)N(Cc4ccccc4)C3=O)c2cc1C (stereo not drawn),active: 31.6 µM,–
COc1ccccc1N1CCN(C/C=C/c2ccc(N(C)C)cc2)CC1,active: 15.8 µM,–
Cc1cccc(N2CCN(C(=O)C3CCN(c4nnc(-n5cccc5)s4)CC3)CC2C)c1 (stereo not drawn),"inconclusive [inhibitor, single point]",–
CC1(C(=O)Nc2nccs2)Cc2ccccc2C(=O)O1 (stereo not drawn),active: 25.1 µM,–
O=c1c(O)c(-c2ccc(O)cc2)oc2ccccc12,"inconclusive [inhibitor, full curve]",–
Cc1nc2ccc(NC(=O)C3CCN(S(=O)(=O)c4cccs4)CC3)cc2s1,"inconclusive [inhibitor, partial curve]",–
COc1cc(NC(=O)c2cc(-n3cnnc3)ccc2Cl)cc(OC)c1,–,inactive: -15%
Cc1ccc(CN2CC(C(=O)Nc3ccc4c(C)cc(=O)oc4c3)CC2=O)cc1 (stereo not drawn),"inconclusive [inhibitor, partial curve]",–
CCc1ccc(NC(=O)c2ccc3c(c2)C(=O)N(Cc2ccco2)C3=O)cc1,"inconclusive [inhibitor, single point]",–
CNC(=O)c1c(I)c(C(=O)NCC(=O)Nc2c(I)c(C(=O)O)c(I)c(C(=O)NCCO)c2I)c(I)c(N(C)C(C)=O)c1I,–,inactive: -8.11% [at 25.7 µM]
COc1ccc(S(=O)(=O)N2Cc3ccccc3CC2C(=O)Nc2ccc(O)cc2)cc1OC (stereo not drawn),"inconclusive [inhibitor, partial curve]",–
Cc1ccc(Nc2nc(N3CCOCC3)c3ccccc3n2)cc1,"inconclusive [inhibitor, partial curve]",–
O=C1C(C=NCCCN2CCOCC2)=C(O)c2ccccc21,–,inactive: 0.731%
O=C(c1cc(-n2cnnc2)ccc1Cl)N1CCN(c2nc(-c3ccccc3)cs2)CC1,active: 25.1 µM,–
CCn1cnc2c1c(=O)n(Cc1nnc3n1-c1ccccc1SC3)c(=O)n2Cc1ccccc1,"inconclusive [inhibitor, single point]",–
COc1cccc(-c2cc(NCc3ccccc3)ncn2)c1,active: 5.01 µM,–
CCc1c(C)nc(N2CCN(Cc3ccccc3)CC2)[nH]c1=O,"inconclusive [inhibitor, partial curve]",–
Cc1ccc(C)c(-c2nc3ccc(N)cc3[nH]2)c1,–,inactive: 20.9%
COC(=O)c1cccc(-n2nnnc2SCC(=O)Nc2nc3c(s2)CCCC3)c1,"inconclusive [inhibitor, partial curve]",–

Compound,Potency,"activity, negative = inhibition"
Cc1nc2c(ccc3nc(NC(=O)c4ccc(S(=O)(=O)N(C)C)cc4)sc32)s1,"inconclusive [inhibitor, full curve, poor fit]",–
CCCNc1cc(=O)n(C)c(=O)n1C,"inconclusive [inhibitor, partial curve]",–
O=C(CN1C(=O)NC2(CCCCCC2)C1=O)c1ccc2c(c1)OCCO2,"inconclusive [inhibitor, single point]",–
C(=N\n1cnnc1)/c1cn(-c2cccs2)nc1-c1ccccc1,–,inactive: -5.06%
COCCCNC(=O)CN(c1ccc(OC)cc1)S(=O)(=O)c1ccc(NC(C)=O)cc1,"inconclusive [inhibitor, partial curve]",–
O=C(CSc1ncccc1-c1nc2ccccc2[nH]1)NCc1ccco1,–,inactive: -2.28%
COc1ccc(C(=O)Nc2ccc(N3CCOCC3)cc2)cc1OC,–,inactive: -13.5%
CN1C(=O)CSc2ccc(NC(=O)N3CCC(N4CCCCC4)CC3)cc21,–,inactive: 13.3%
CCN1CCCC1Cn1c(-c2ccccc2)nc2c(NC3CCCCC3)nc(C)nc21 (stereo not drawn),–,inactive: -29.9%
CCSc1nnc(NC(=O)C2Cc3ccccc3CN2C(=O)c2ccco2)s1 (stereo not drawn),"inconclusive [inhibitor, single point]",–
CC1CCC(C(=O)O)NC1c1cccc(N2CCCC2=O)c1 (stereo not drawn),–,inactive: 11.8% [at 11.5 µM]
COc1cccc(C2CC(c3ccc(C)cc3)Nc3nc(N)nn32)c1 (stereo not drawn),"inconclusive [inhibitor, partial curve, poor fit]",–
Cn1cccc1C(=O)N1CCC2(CC1)CCN(c1ccncc1)CC2,–,inactive: -17.5%
O=C(CCc1nc2ccccc2[nH]1)N1CCN(C(=O)c2ccco2)CC1,–,inactive: -2.43%
COCC(=O)N1CCC[C@@]2(CCN(c3ccccn3)C2)C1,–,inactive: 3.72%
Cc1ccc(N(C(=O)Cn2nnc(-c3ccc(C)o3)n2)C(C(=O)NC2CCCC2)c2ccco2)cc1 (stereo not drawn),–,inactive: -10%
COc1cc2c(N3CCOCC3)cc(O)c(CC(=O)Nc3ccccc3)c2cc1OC,–,inactive: 1.72%
COc1ccc(NC(=O)c2cc3ccccc3o2)cc1,–,inactive: -6.92%
O=C(O)COc1nsnc1N1CCOCC1,–,inactive: -7.11%
COc1ccc(CCN2C(=O)c3[nH]nc(-c4ccccc4O)c3C2c2ccccc2)cc1OC (stereo not drawn),"inconclusive [inhibitor, partial curve]",–
CCOC(=O)N1CCN(C(=O)c2oc3ccc(S(=O)(=O)N4CC(C)CC(C)C4)cc3c2C)CC1 (stereo not drawn),"inconclusive [inhibitor, partial curve]",–
O=C(c1ccncc1)N1CCC2(CC1)CN(c1ccc(-c3ccccc3)cc1)C2,"inconclusive [inhibitor, single point]",–
COc1ccc(N2CCN(C(=O)C(C)(C)Oc3ccc(Cl)cc3)CC2)cc1,"inconclusive [inhibitor, partial curve]",–
C=CCNc1ncnc2c1[nH]c1ccccc12,"inconclusive [inhibitor, single point]",–
